Assay results taken from paper PMC11264237 (Archives of biochemistry and biophysics, 2024).

Target: T1, GST fused to the ATP8A1 tail (amino acids 1049-1163) (human, UniProt Q9Y2Q0 1049-1163)
T1 sequence (looked up): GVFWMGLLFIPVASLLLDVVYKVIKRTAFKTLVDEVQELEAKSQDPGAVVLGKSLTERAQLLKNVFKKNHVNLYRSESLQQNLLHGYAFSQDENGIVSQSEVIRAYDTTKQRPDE
Assay: pull-down

- % of total input bound to the beads: 5 % of total input
B1: GBF1 (natural protein)
chain: not shown
